# Source: PMC7819943, “Rice protein-binding microarrays: a tool to detect cis-acting elements near promoter regions in rice”
# Some of the results follow.
# Target: T1, OsWOX13 (Oryza sativa, UniProt Q5QMM3 1-267)
# T1 sequence: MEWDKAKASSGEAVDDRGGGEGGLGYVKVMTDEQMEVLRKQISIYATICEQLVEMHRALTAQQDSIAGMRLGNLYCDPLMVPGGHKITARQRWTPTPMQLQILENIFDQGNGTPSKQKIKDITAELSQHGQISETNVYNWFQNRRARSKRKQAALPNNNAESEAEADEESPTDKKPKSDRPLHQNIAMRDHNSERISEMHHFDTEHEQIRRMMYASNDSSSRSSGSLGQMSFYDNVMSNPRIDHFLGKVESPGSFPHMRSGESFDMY
# Assay: protein-binding microarray (RPBM); PBS, 2% BSA, 51.3 ng/ul salmon testes DNA, 50 uM zinc acetate, 200 nM TF, 25 C, 1 h; high values mean tight binding
# Settings: protein: recombinant; tags: N-terminal polyhistidine and DsRed monomer fusion (pET32a); label: CyDye5-dUTP incorporated in the synthesized complementary strand; 3' TTTTT single-stranded linker to array surface; dsDNA, one strand shown
# Outline: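 Ni–NTA purification followed expression in E. coli BL21-CodonPlus of transcription factors fused N-terminally to a polyhistidine tag and DsRed. At 200 nM in PBS with 2% BSA, salmon testes DNA and 50 µM zinc acetate, the protein was incubated for 1 h at 25 °C with a custom Agilent array that had been primer-extended with Cy5-dUTP and blocked with 2% BSA. After washing, the array was read on an Axon 4000B scanner. The binding signal is per-feature fluorescence intensity in arbitrary units.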
row,Sequence,binding signal
1,GCGCAAAATTTCGAAATTTAATTTTGAAATGCATTTTATTCGGAGTCACCTAGTGCAG,7620 fluorescence intensity (a.u.)
2,TACGGGAATTGTTCTGATTGATGTTATTAATATTGGTTGGCGGAGTCACCTAGTGCAG,49700 fluorescence intensity (a.u.)
3,AACTCGTGTTCTAATTGGCAAGATGAGTTGATAAGATTATCGGAGTCACCTAGTGCAG,7030 fluorescence intensity (a.u.)
4,GTATAATTATAGCGTAGTTATATTGTAACCTTATATAACTCGGAGTCACCTAGTGCAG,7090 fluorescence intensity (a.u.)
5,ACATTAACATATAATTAATTAAGTTTTAATTCTCGGAAAACGGAGTCACCTAGTGCAG,46100 fluorescence intensity (a.u.)
6,ATGCCTCTTCAATCATTAGCCGAAGAAGCAAGTGCCTAATCGGAGTCACCTAGTGCAG,5440 fluorescence intensity (a.u.)
7,ACCGTGTCAAGACAAATAATTAAGGTCAGAAATTACTTATCGGAGTCACCTAGTGCAG,3890 fluorescence intensity (a.u.)
8,AAAACCAGGCAAGTGATTGATACGGCCGGTCCGCTTCCATCGGAGTCACCTAGTGCAG,32500 fluorescence intensity (a.u.)
9,TGAGACAATCAGACCCCTAATTGCGGCTCATGATTTTATACGGAGTCACCTAGTGCAG,11800 fluorescence intensity (a.u.)
10,GCTAAAATTGAAAGTTTGGTTGAAATTGGAATAATGTGATCGGAGTCACCTAGTGCAG,24900 fluorescence intensity (a.u.)
11,AGCACAAGACCCGTCAATCATTTCATAAAGGATCCAAAGGCGGAGTCACCTAGTGCAG,7440 fluorescence intensity (a.u.)
12,GTTTATGTGTGATTGGTACAATCTGGAGAGAAACAAACCACGGAGTCACCTAGTGCAG,16200 fluorescence intensity (a.u.)
13,ATACTAATACTTAATTAACCACGCGCTAATAGACCCCTCGCGGAGTCACCTAGTGCAG,9190 fluorescence intensity (a.u.)
14,CTCTTGACAGTCATATAAAGGACTCAGTAGTTGACCATCACGGAGTCACCTAGTGCAG,5230 fluorescence intensity (a.u.)
15,TAGTAGATTATAAGAAGTTATAATTGTAGAGTTAATCTTGCGGAGTCACCTAGTGCAG,5400 fluorescence intensity (a.u.)
16,TTTCGCAATTATATTGATGCAGAAATCAGCAGCTCACAATCGGAGTCACCTAGTGCAG,5830 fluorescence intensity (a.u.)
17,CAATCAATCAACAAGTCAGTGTGATTTATAGTCATAAGATCGGAGTCACCTAGTGCAG,36000 fluorescence intensity (a.u.)
18,GTATAGATTGTTTTGATGTAAAATTCCTGATTTGGGCCTTCGGAGTCACCTAGTGCAG,14200 fluorescence intensity (a.u.)
19,CCTTTTGTAATCATAAACGGGCCGTGACGAGTTCCAGGTACGGAGTCACCTAGTGCAG,5810 fluorescence intensity (a.u.)
20,GGAAGATTAAACAACGATTGGTTGTCTCATGTCTAGCCTACGGAGTCACCTAGTGCAG,18500 fluorescence intensity (a.u.)
21,CAGAAATCATGTATATTTTAATTTTGTTTTCTAGATTTCGCGGAGTCACCTAGTGCAG,12000 fluorescence intensity (a.u.)

row,Sequence,binding signal
1,AAAATCATGGTGTTAATTCTCTATTTTGATTCAGTATTGGCGGAGTCACCTAGTGCAG,3560 fluorescence intensity (a.u.)
2,AATAAATATTGGGTCAATCAGACCAGAACAATCTAAAGTCCGGAGTCACCTAGTGCAG,7540 fluorescence intensity (a.u.)
3,TCTCCTTACCTGTTAACTTTCTCCCTGACAGCTATTGCAACGGAGTCACCTAGTGCAG,4120 fluorescence intensity (a.u.)
4,AAAATGTCAATTAGATGCGTAATTAAACAGAAACTTCGGACGGAGTCACCTAGTGCAG,42000 fluorescence intensity (a.u.)
5,CCAAACATAGCCTAATCAATTAGCATAGCTCTGTTTCTAACGGAGTCACCTAGTGCAG,12000 fluorescence intensity (a.u.)
6,TTTCTAATTTCTTTCAGCATCGTATTAATGTCGATATTAACGGAGTCACCTAGTGCAG,3250 fluorescence intensity (a.u.)
7,ATAGATGAAGAATAAATATGATTGGTAGAGAAGAGAGATGCGGAGTCACCTAGTGCAG,25600 fluorescence intensity (a.u.)
8,CAGAAATTAGTCTTTTAAGGACAGAGGAAAATATGTTCATCGGAGTCACCTAGTGCAG,3710 fluorescence intensity (a.u.)
9,CATTTACAAATTAAAACAAGCTGACATCAAAGTGACAAACCGGAGTCACCTAGTGCAG,3300 fluorescence intensity (a.u.)
10,ATATATATATATATATATATATAGAGAGAGAGAGAGAGACCGGAGTCACCTAGTGCAG,8870 fluorescence intensity (a.u.)
11,TTCCAGTTATTTCTAAATTGTATTCCTATTTGGACTCTCCCGGAGTCACCTAGTGCAG,3910 fluorescence intensity (a.u.)
12,TGTTACTGATTGTAATGCAGTTATTTGTGACATATGTGAACGGAGTCACCTAGTGCAG,27200 fluorescence intensity (a.u.)
13,TCGCTTATTAATTAGAGTAATAATTGTACTCTATTATCAACGGAGTCACCTAGTGCAG,17800 fluorescence intensity (a.u.)
14,CAAAGTTTGATTAATGTAAAACCTGAAAGTCTGCAAAGTTCGGAGTCACCTAGTGCAG,14600 fluorescence intensity (a.u.)
15,GTCATTTTAATTGCAAATGCTTTTATATGTTGTTTCTTTCCGGAGTCACCTAGTGCAG,6630 fluorescence intensity (a.u.)
16,GCGATTTTAATGGGATTAATTTTGACCTCGATCGGCATATCGGAGTCACCTAGTGCAG,12400 fluorescence intensity (a.u.)
17,GCTGCCAATTTGCCAAATCATATTCTCACGCCCTACCTAACGGAGTCACCTAGTGCAG,10400 fluorescence intensity (a.u.)
18,CTAAATTTTGCCGAGATCGAGCAGTTCAGTGTGTCTGTCACGGAGTCACCTAGTGCAG,7610 fluorescence intensity (a.u.)
19,CATGTTTTATTAGATAGATTGTGGGTGCTCTTAGTGACAGCGGAGTCACCTAGTGCAG,5560 fluorescence intensity (a.u.)
20,ACATGATTTTCATAAAAGAGATGAGCAGATAATCACTAGTCGGAGTCACCTAGTGCAG,5960 fluorescence intensity (a.u.)
21,CAACTAGTTTGATTAGGTCAACGTGCCATATCAACGAAATCGGAGTCACCTAGTGCAG,3330 fluorescence intensity (a.u.)
